Consider one substance from patent US20040022772.

The data set has as its target p160 BCR (UniProt P11274).
UniProt P11274, sequence (P11274 whole entry): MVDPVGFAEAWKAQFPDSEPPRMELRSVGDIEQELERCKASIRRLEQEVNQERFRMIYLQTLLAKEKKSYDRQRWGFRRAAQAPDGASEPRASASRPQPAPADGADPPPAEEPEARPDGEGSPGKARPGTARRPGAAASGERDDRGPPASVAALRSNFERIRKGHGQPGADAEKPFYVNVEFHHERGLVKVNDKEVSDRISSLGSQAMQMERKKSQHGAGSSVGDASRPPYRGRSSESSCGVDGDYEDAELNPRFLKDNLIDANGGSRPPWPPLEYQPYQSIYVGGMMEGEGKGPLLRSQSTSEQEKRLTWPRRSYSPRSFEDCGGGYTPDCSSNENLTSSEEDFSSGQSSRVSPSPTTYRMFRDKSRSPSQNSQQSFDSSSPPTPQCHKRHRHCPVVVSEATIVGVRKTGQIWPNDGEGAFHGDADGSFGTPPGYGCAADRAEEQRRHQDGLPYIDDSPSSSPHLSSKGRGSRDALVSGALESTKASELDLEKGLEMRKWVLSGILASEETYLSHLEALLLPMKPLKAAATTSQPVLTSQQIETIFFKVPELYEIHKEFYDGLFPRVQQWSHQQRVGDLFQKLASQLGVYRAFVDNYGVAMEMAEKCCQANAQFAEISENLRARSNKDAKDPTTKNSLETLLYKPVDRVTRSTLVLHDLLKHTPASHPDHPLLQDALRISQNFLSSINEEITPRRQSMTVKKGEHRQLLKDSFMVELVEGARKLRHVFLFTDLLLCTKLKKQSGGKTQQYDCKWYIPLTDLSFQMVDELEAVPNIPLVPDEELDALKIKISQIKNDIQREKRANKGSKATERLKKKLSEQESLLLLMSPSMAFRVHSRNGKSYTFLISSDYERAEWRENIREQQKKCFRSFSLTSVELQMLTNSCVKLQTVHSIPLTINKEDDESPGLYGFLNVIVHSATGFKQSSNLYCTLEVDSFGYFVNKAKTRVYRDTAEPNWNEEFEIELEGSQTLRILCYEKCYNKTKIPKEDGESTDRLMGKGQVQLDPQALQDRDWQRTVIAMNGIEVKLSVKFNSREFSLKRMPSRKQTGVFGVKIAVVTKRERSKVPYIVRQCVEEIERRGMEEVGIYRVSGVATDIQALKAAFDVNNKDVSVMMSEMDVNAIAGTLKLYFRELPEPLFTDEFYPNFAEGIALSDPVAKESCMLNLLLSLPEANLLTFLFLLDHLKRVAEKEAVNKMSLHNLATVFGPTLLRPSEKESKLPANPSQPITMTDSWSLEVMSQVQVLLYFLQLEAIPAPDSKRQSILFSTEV

On to p210 BCR-ABL, for which the “serine/threonine transphosphorylation of casein by Bcr mixed in vitro with Bcr-Abl” value is recorded as “the level of casein serine/threonine phosphorylation was greatly inhibited”.
